According to PMC4336329 (PLoS ONE, 2015):
The campaign covered roughly 310,000 compounds. About 14,000 (4.5%) showed an effect of 50% or more. The effect is printed as a negative number. The list shows a part of the results.

The compounds below were run against human ether-à-go-go-related gene (hERG) potassium channel (human, UniProt Q12809) (assay: primary screen, population patch clamp on CHO cells stably expressing hERG).
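Note: peak tail current of the secondary pulse compared with the same well before compound.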

Sequence of human ether-à-go-go-related gene (hERG) potassium channel (Q12809 whole entry, looked up): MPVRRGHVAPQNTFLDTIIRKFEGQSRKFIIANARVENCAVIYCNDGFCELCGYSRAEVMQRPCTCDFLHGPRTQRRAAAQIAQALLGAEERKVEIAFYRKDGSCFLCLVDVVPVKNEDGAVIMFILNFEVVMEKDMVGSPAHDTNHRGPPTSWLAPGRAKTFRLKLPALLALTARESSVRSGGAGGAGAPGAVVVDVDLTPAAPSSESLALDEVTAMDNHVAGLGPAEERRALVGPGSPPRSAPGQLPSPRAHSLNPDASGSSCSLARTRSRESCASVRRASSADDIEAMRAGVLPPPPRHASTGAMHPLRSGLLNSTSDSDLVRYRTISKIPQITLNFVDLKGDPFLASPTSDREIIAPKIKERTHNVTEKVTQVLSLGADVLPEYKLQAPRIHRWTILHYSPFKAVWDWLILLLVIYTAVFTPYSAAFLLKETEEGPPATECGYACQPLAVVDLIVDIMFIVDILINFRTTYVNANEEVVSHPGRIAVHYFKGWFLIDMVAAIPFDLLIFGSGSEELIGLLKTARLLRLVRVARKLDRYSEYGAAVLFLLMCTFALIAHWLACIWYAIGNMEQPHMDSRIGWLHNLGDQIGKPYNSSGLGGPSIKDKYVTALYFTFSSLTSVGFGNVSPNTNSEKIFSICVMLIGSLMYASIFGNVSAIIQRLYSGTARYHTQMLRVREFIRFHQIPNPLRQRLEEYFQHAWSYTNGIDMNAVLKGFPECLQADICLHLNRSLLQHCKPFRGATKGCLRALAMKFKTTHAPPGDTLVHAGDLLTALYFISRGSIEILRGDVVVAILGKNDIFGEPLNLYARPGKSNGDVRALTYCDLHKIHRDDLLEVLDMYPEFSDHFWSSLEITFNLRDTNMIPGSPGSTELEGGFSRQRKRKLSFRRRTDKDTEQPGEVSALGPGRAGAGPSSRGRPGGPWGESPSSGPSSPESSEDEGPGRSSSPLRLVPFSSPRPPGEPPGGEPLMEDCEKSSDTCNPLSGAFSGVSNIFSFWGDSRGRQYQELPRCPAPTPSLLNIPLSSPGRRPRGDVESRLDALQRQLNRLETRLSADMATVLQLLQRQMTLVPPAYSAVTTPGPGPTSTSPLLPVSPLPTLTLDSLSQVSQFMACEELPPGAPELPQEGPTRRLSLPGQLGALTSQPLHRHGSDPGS

SMILES	hERG current change (%, negative = inhibition) at 10uM [%]
Cc1ccc(NC(=O)CCc2nnc3ccc(NCc4ccco4)nn23)cc1	-2.39
c1ccc(-c2n[nH]c(-c3ccccn3)n2)cc1	12.4
Cc1cc(=O)c2c(O)c(O)ccc2o1	8.73
COC(=O)c1c(NC(=O)CSc2nnc(-c3cccnc3)n2Cc2ccco2)sc(C)c1C	-59.3
O=C(CC1C(=O)NCCN1CC1CCCCC1)NCCc1ccc(F)cc1 (centres unmarked)	-51.6
COc1ccc(CN(C)C(=O)CCN2C(=O)c3ccccc3C2=O)c(OC)c1OC	-2.22
NS(=O)(=O)c1ccc(CNC(=O)c2ccccn2)cc1	26.5
CCOC(=O)C1CN(S(=O)(=O)c2ccc(OC)cc2)c2cc(S(=O)(=O)CC)ccc2O1 (centres unmarked)	-52
Cc1[nH]nc(N2CCCCC2)c1[N+](=O)[O-]	-6.37
CCCCc1cc(=O)oc2cc(C)cc(OC(C)C(=O)NCc3ccncc3)c12 (centres unmarked)	-36
O=C(COC(=O)COc1ccccc1)Nc1ccc(S(=O)(=O)N2CCOCC2)cc1	4.09
CCOC(=O)/C=C/[C@H]1Cc2ccccc2CO1	2.69
CCCCSCc1nc2ccccn2c1Br	13.3
Cc1ccc(OCc2nc(C#N)c(N3CCN(Cc4ccccc4)CC3)o2)cc1	-6.23
O=C(COc1ccc(F)cc1)NN1C(=O)CSC1=S	28.5
Cc1ccc(/C=N\NC(=O)c2ccc(Cn3cc(Br)c([N+](=O)[O-])n3)o2)o1	8.71
O=C(NCCCn1ccnc1)c1noc2c1CCc1ccccc1-2	-45.9
COc1ccc(S(=O)(=O)N2CCCN(CC(=O)Nc3ccc(NC(C)=O)cc3)CC2)cc1	2.8
COc1ccccc1-n1cnnc1SCC(=O)c1c[nH]c2ccccc12	21.2
O=S(=O)(Nc1ccccc1N1CCCCC1)c1ccc(F)cc1	-8.92
Cc1ccc2nc(NC(=O)c3cccc(-c4cc5ccccc5oc4=O)c3)sc2c1	12.9
Nc1c(S(=O)(=O)c2cccs2)c2nc3ccccc3nc2n1Cc1ccc2c(c1)OCO2	2.09
Cc1ccc(C(=O)NC2CCS(=O)(=O)C2)cc1S(=O)(=O)N1CCOCC1 (centres unmarked)	-13.3

SMILES	hERG current change (%, negative = inhibition) at 10uM [%]
CCCOc1ccc(C(C)(O)CN2CCOCC2)cc1 (centres unmarked)	15.6
COC(=O)c1ccc(CN2CCCC(C(=O)Nc3cccc(-n4cnnn4)c3)C2)cc1 (centres unmarked)	-47.7
S=c1[nH]nc(COc2ccccc2)n1/N=C/c1ccc(Br)cc1	25.1
Cc1ccc(C(=O)CSc2nnc(CNc3ccc(C)cc3C)o2)cc1	-10.7
O=C(O)c1ccccc1Nc1ccc(OC(F)F)cc1	20.6
O=c1ccc(Oc2nc(N3CCOCC3)nc(N3CCOCC3)n2)nn1-c1ccccc1	-5.35
CCN(C(=O)COC(=O)c1n[nH]c2ccccc12)c1ccccc1	-0.447
CSc1ccc(-c2sc(Nc3ccccc3)n[n+]2-c2ccccc2)cc1.[Cl-]	-46.2
Cc1ccccc1NC1=C(Cl)C(=O)OC1OC(=O)c1ccco1 (centres unmarked)	5.17
Cc1ccc(S(=O)(=O)N/N=C\c2cccnc2)cc1	-4.07
COc1cccc(C(C)NC(=O)C2CCCC2)c1 (centres unmarked)	1.04
Cc1ccc(/C=C/C(=O)OCn2nnc3ccccc3c2=O)o1	7.85
Cc1cc(C)nc(/N=C(\N)Nc2ccc(-c3ccccc3)cc2)n1	-81.6
Cc1[nH]c(=O)[nH]c(=O)c1S(=O)(=O)N1CCCCC1	21.3
O=C(COc1ccccc1)NNC(=S)NC(=O)c1ccc(Cl)cc1Cl	14
COc1ccc(OC)c(/C=C/C(=O)Nc2ccc3c(c2)CCC3)c1	7.15
COc1cc2nc(C3CCC3)n(NC(=O)COc3ccccc3)c(=O)c2cc1OC	14.9
COc1ccc(CCNC(=O)CC(Cc2ccc(C)cc2)C(=O)O)cc1OC (centres unmarked)	5.06
Cc1[nH]c2ccccc2c1C(=O)COC(=O)c1ccc2c(=O)n3c(nc2c1)CCC3	36.6
O=C(c1ccc(F)cc1)[C@@H]1[C@@H](C(=O)c2ccccc2)[C@@]2(C(=O)Nc3ccccc32)[C@H]2c3ccccc3C=CN12	4.11
Cc1ccc(N=Cc2c(O)n(-c3ccc4c(c3)OCO4)c(=O)c3ccccc23)cc1	7.77
O=C(COC(=O)c1ncc(Cl)c(Cl)c1Cl)NC(=O)c1ccccc1	14.9
COc1ccccc1CNC(=S)NC1CCCCC1	-3.19

SMILES	hERG current change (%, negative = inhibition) at 10uM [%]
CC(CCc1ccccc1)NC(=O)C(=O)NCc1ccccc1 (centres unmarked)	12.6
COC(=O)c1cc(NC(=O)c2c(-c3c(Cl)cccc3Cl)noc2C)ccc1N1CCOCC1	-2.79
Cc1ccc2cc(C)c3nnc(SCC(=O)N4CCN(C(=O)c5ccco5)CC4)n3c2c1	-14.6
Cc1cccc(C(=O)Nc2cccc3c2CCCC3)c1	23.1
CN(C)S(=O)(=O)Nc1cccc(NC(=O)CC23CC4CC(CC(C4)C2)C3)c1	-2.88
COc1ccc(CCNc2ncnc3c2oc2ccccc23)cc1OC.Cl	0.357
Cc1nc(SC(C(N)=O)c2ccccc2)c(C#N)c(C)c1C (centres unmarked)	11.1
CC(C)(CN)CC(=O)O.Cl	11.6
Cc1ccc(S(=O)(=O)N2CCN(C(=O)COc3ccc(Br)cc3)CC2)cc1	-9.5
CNCc1c(C)nn(-c2ccccc2)c1C	9.96
Cc1ccc(NS(=O)(=O)c2ccc3[nH]c(=O)c(=O)[nH]c3c2)cc1Cl	28.1
COc1cccc(CNC(=O)C(=O)NCC(c2ccco2)N2CCOCC2)c1 (centres unmarked)	5.02
COc1cccc(NC(=O)Nc2cccnc2)c1	1.55
CC(=O)N1C(=O)CC(C)N(C(C)=O)c2ccc([N+](=O)[O-])cc21 (centres unmarked)	-9.08
CN(C(=O)CN1C(=O)c2ccccc2S1(=O)=O)c1ccccc1C(=O)O	25.6
O=C(COC(=O)c1sc2ccccc2c1Cl)NC1CCCCC1	17.1
S=C(NCCN1CCOCC1)Nc1ccc(Br)cc1	5.71
Cc1c(Cl)cccc1Nc1nc(N)nc(CN2CCc3ccccc3C2)n1	-33
COc1ccc2nc(N3CCCC(C(=O)NCCc4ccc(OC)c(OC)c4)C3)sc2c1 (centres unmarked)	-19.1
N#Cc1ccc(OCC(=O)NC2=NCCS2)cc1	16.6
COCCNc1cc(C)nc2c3c(C)cc(C)nc3nn12	-17.5
COC(=O)[C@@H]1CCCN1C(=O)CCc1nnc(CCC2CCCCC2)o1	-6.51
O=C(COC(=O)Cc1ccc(Cl)cc1)Nc1ccc(OC(F)F)cc1	4.27

SMILES	hERG current change (%, negative = inhibition) at 10uM [%]
CCn1cnc2c1c(=O)n(CC(=O)Nc1ccc3c(c1)OC(F)(F)O3)c(=O)n2Cc1ccccc1	-9.18
O=C1C2C(C(=O)N1/N=C/c1cc(Br)cc([N+](=O)[O-])c1O)C1C=CC2C12CC2 (centres unmarked)	-3.53
CC(C)CCOCc1nc2sc3c(c2c(=O)[nH]1)CCC(C)C3 (centres unmarked)	-8.65
Cc1nn(C)cc1/C=N/NC(=O)c1ccco1	3.44
COc1ccc(OC)c(NC(=O)COC(=O)c2n[nH]c3ccccc23)c1	-7.8
COc1ccc(C2CCCN2C(=O)c2cccs2)cc1 (centres unmarked)	11
Cc1ccccc1OCC(=O)Nc1cccc(S(=O)(=O)NC2=NCCC2)c1	-27.5
Nc1nc(SCC(=O)N2CCCCCC2)[nH]c(=O)c1NC(=O)c1ccco1	9.72
CCOC(=O)C1CCN(/C=C2\C(=O)NC(=S)N(CC)C2=O)CC1	10
CC(=O)Oc1ccccc1N(C(C)=O)S(=O)(=O)c1ccc2ccccc2c1	7.06
CN1CCN(C(=S)Nc2ccc([N+](=O)[O-])cc2)CC1	-23.1
CC(/C=C/c1ccc(N(C)C)cc1)=N/N=C1/NC(=O)CC(C(=O)Nc2ccc(Cl)cc2)S1 (centres unmarked)	5.34
COC(=O)C1=C(c2cccc(OC)c2OC)C[C@@H]2CC[C@H]1N2C(=O)NC1CC1	16.7
CCn1ccnc1CN(C)C(=O)CCc1nnc(CCC2CCCCC2)o1	-27.7
Cc1ccc(CNS(=O)(=O)c2c(C)[nH]c(C)c2C(=O)N2CCCCC2)o1	-0.256
O=C(Cn1c(=O)cnc2ccccc21)NNC(=O)c1ccccc1Cl	4.84
Cc1cc(C)n(Cc2ccc(C(=O)NN)o2)n1	10.1
S=c1nc(-c2csc3c2CCCC3)[nH][nH]1	23.2
Cc1noc(C)c1C(=O)OC(C(=O)NC1CCCC1)c1ccc(F)cc1 (centres unmarked)	5.75
CCCC1=C(C(=O)OCC)C(c2cc(Cl)cc(OC)c2OCC(=O)OCC)NC(=O)N1 (centres unmarked)	-6.07
